# Measurements: article PMC12136788
# The list shows a part of the results.
# B1: chr11:29608462:29608463:+_ENSMUSG00000020458_ENSMUST00000102843|mus_mus|FALSE|FALSE (ssRNA)
# RNA: GGGAGUUCUACAGUCCGACGAUCAAGGUCACAGGGCAAUUCUGAGCAAGGCAACGAAUUGGCCCCGCUCUGGACAUUAGCAAUUUCACUUUUGUUGGAUACUUCUAGGUCAGUGUACUCCUUAGGAGAAUCAUCUUUAGCACUCAACAGAGGAUUGAGCAUCA
# B2: chr2:232597714:232597715:-_ENSG00000156973_ENST00000287600|hu_hu|motif|central (ssRNA)
# RNA: GGGAGUUCUACAGUCCGACGAUCGAAAAGUCUCACUCUGGAUGUGCUUACAAGAAGAUCGUCGUCAAAAAACUUUGUUUCGGUGAUAACGUUCCCAGUUAAGACGCUUGCUGGCAUCAUCUGGGACUCGGGUGCUGCCUCUAUCAACAGAGGAUUGAGCAUCA
# B3: chr7:151048522:151048523:+_ENSG00000013374_ENST00000566856|hu_mus|hu_hu_hu_mus_True|38_98 (ssRNA)
# RNA: GGGAGUUCUACAGUCCGACGAUCCUGUUUCUUAUUUAUGACAAUUUUGAUGUAAUUUUCUUGAAAUCCGAAAGUUUCAGCUAUUUGACACCUCAGGUCUCUGCCAGUGACAUGCAAGCGGGUCUCCAACAAGCUUUUCUUAUCCAACAGAGGAUUGAGCAUCA
# B4: 69964948_69965068_5129_ncRNA_ENSMUSG00000029208_ENSMUST00000154728|mouse|control|control (ssRNA)
# RNA: GGGAGUUCUACAGUCCGACGAUCUAAUCACUAUAGCAUCCUAACUUACUGUGAUAUACUAUUAAGACGCUUAGAAACCAUUGAAGAUAUGUCAGAUGUAGCAAUGAUCUUUGUCUUUGAAGCAAAACCAACAUUAUUUAGCUUCAACAGAGGAUUGAGCAUCA
# B5: 96397689_96402886_1621_CDS_ENSG00000111144_ENST00000228740|human|control|control (ssRNA)
# RNA: GGGAGUUCUACAGUCCGACGAUCAAGAGGUGCCCUCUGGAGCGUCUGUGCUAAAAACUCAUUCAAUUGAUGAGAAGAGAGAUCCUUCAGGUCUGUGGCAUUGAAUGAAUUUAAAUCAUCUUCUUUGGCAGUAAUCCAUCUUUGCAACAGAGGAUUGAGCAUCA
# B6: chr3:142137402:142137403:-_ENSG00000114127_ENST00000264951|hu_hu|motif|central (ssRNA)
# RNA: GGGAGUUCUACAGUCCGACGAUCAUCAGAUACUACGUCAACCCCCAUCUUCGUCAUGUAAUAUGUUCUUUUAUAUUGUCGGAACUCAGUUUCAAAUAGGUCAUCAUCUUCAGUCUCAUCUUCUAAAUUAUCCUUAGAAGUUAUCAACAGAGGAUUGAGCAUCA
# B7: chr13:30959905:30959906:-_ENSMUSG00000021357_ENSMUST00000021785|mus_mus|FALSE|FALSE (ssRNA)
# RNA: GGGAGUUCUACAGUCCGACGAUCAUGGAUGCUUCCAAACAAAUCAGGAGAAGAAACAUCAACAGAAAGAUGAGUAGUAUCUAUGUCUGCAUCAGGCUUGGUGCUCAGUUGUUCCAGGCAGUAUAUAAAAACCUGCAUGAUAUUCAACAGAGGAUUGAGCAUCA
# B8: 75878501_75878621_370_3pUTR_ENSMUSG00000034098_ENSMUST00000038364|mouse|control|control (ssRNA)
# RNA: GGGAGUUCUACAGUCCGACGAUCUGGGCACAUAGGGUUCCAGUGGGCGUUGCCUCCAGGUGCCCAAGCAGGCGAUCCCUUACACCCGGGGUUCAGCACCGACACUCUGUGGACAGCACCAGCUCCGCUCACGUCCAGUUUGUCCAACAGAGGAUUGAGCAUCA
# B9: chr11:100882373:100882374:+_ENSMUSG00000019302_ENSMUST00000044721|mus_mus|mus_mus_mus_hu_True|28_38 (ssRNA)
# RNA: GGGAGUUCUACAGUCCGACGAUCUUCCUGGUUUGUGUUGAUUUCCUUCAGUUCAUUUUCAAUCUUCUCAAAAUUGGCCUCUAAGUCAAUCAUGUCCCGAGGGAAGGGCACCUCUGGGUUUUCACCGGUGUCCAUAAUCGGAAUCAACAGAGGAUUGAGCAUCA
# B10: chr17:65740002:65740003:+_ENSG00000130935_ENST00000581375|hu_hu|hu_hu_hu_mus_False|48_98 (ssRNA)
# RNA: GGGAGUUCUACAGUCCGACGAUCAACAAAUCUUUCUCUGGAUGAAGAACAGGAAGAUUCAUAUUAAAAAAAAUAUAUAUCCAUCAAGGAGAAUUGAGUGGCCACACCUUUACUCCCAGCACUUUGGGAGGUGGAUCUCUGAGUCAACAGAGGAUUGAGCAUCA
# B11: 98652892_98654833_1226_CDS_ENSG00000065150_ENST00000490680|human|control|control (ssRNA)
# RNA: GGGAGUUCUACAGUCCGACGAUCAAAAAGUAAAACAAAAUUUACGAUCUCAUUUAGAAUUCCUUCCAUUUGCUGGUGGCACCCUUCACCAAUGGCAGAUAAGGCCAUCAAUCCUGCAUGCCGGUAUUUCCAGUCAGGAUUUUGCAACAGAGGAUUGAGCAUCA
# B12: chr8:126034020:126034021:+_ENSG00000104549_ENST00000265896|hu_hu|FALSE|FALSE (ssRNA)
# RNA: GGGAGUUCUACAGUCCGACGAUCCUUAAAGCAAAAAUACACGGCAUAGAUUGCAACAGCAAAGAAGUGUCCAAUUAAAACUAGAGGGUUAGGAGACAAUACAGAAAGCAGCCCAACAGGACCCGCAACACAUUCGCCACCAAGCAACAGAGGAUUGAGCAUCA
# B13: 61725924_61726915_1310_CDS_ENSG00000082898_ENST00000401558|human|control|control (ssRNA)
# RNA: GGGAGUUCUACAGUCCGACGAUCUUCCAUUACAAACUGACACAGUUGAAAUAUCUGUGAGAAUUCAUUGCACAUGCUGUCUUUUAAAUGCUUAGAUUUGACUUGGGUUAUCUGUCCACUAGAGAAAUCAAAUACUUCUUCACUCAACAGAGGAUUGAGCAUCA
# B14: chr4:107545374:107545375:+_ENSMUSG00000028613_ENSMUST00000106731|mus_mus|motif|central (ssRNA)
# RNA: GGGAGUUCUACAGUCCGACGAUCGUUGAUGGAUAGCCACAAAGCAUAAUUUUAUUUACAAAAAAAUCAAGCCCCUCAAACCGGAAAAAGCUCUCAACUCAAACAUCCUCUGUAAAUACUGUAUUCAAAUGAUGAGUGAAGUUUCAACAGAGGAUUGAGCAUCA
# Biological target: T1, UNK ZnF1-3 (human, UniProt Q9C0B0 31-174)
# T1 sequence: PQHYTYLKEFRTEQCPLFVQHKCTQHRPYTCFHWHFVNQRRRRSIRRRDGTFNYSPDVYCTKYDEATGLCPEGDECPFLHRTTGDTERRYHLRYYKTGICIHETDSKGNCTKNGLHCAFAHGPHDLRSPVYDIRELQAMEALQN
# Assay: nsRBNS (natural sequence RNA bind-n-seq); RBNS binding buffer (assumed for nsRBNS): 25 mM Tris pH 7.5, 150 mM KCl, 3 mM MgCl2, 0.01% Triton X-100, 500 ug/ml BSA, 20 U/ml SUPERase-In, 4 C; UNK is unkempt and MSI1 is Musashi-1; names of the RNAs are library labels; protein concentration not given here; high values mean tight binding
row,Binder,binding signal [enrichment R]
1,B1,0.492
2,B2,0.875
3,B3,0.944
4,B4,0.576
5,B5,0.854
6,B6,0.84
7,B7,1.22
8,B8,0.686
9,B9,0.433
10,B10,2.68
11,B11,0.497
12,B12,1.35
13,B13,0.621
14,B14,1.7
